Results on 54 compounds are retold here after PMC4336329 (PLoS ONE, 2015).

About 14,000 (4.5%) of roughly 310,000 compounds showed an effect of 50% or more. The effect is printed as a negative number. Some of the results follow.
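Also: peak tail current of the secondary pulse compared with the same well before compound.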

human ether-à-go-go-related gene (hERG) potassium channel, sequence (Q12809 whole entry, looked up): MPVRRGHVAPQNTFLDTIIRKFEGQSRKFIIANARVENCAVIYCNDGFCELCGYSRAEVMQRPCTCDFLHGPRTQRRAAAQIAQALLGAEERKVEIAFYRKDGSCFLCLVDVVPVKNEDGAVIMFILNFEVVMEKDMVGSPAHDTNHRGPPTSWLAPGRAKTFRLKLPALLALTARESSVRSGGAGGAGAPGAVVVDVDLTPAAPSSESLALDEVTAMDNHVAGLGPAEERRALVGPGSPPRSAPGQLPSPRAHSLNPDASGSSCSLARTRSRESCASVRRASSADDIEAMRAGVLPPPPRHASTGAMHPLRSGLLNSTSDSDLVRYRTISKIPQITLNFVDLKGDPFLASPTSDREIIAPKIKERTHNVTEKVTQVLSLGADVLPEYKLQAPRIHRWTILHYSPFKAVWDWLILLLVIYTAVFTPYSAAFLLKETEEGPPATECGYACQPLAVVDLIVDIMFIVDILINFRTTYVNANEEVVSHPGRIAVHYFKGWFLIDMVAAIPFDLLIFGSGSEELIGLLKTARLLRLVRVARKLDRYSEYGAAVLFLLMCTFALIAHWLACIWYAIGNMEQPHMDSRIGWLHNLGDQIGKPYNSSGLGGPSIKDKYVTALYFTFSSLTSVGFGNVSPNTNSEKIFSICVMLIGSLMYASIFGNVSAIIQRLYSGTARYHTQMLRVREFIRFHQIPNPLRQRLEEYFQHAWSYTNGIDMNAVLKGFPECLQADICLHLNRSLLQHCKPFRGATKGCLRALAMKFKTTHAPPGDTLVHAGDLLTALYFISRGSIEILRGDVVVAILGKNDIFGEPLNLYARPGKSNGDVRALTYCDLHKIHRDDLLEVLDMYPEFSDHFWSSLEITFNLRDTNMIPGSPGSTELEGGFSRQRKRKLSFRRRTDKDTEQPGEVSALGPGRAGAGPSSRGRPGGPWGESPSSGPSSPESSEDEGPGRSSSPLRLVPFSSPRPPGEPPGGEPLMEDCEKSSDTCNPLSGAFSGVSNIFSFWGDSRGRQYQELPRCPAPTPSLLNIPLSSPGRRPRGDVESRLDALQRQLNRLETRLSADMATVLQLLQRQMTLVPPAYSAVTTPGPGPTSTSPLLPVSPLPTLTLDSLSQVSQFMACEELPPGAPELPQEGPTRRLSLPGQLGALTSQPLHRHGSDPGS

The test has as its target human ether-à-go-go-related gene (hERG) potassium channel (human, UniProt Q12809). Put plainly: primary screen, population patch clamp on CHO cells stably expressing hERG.
On to `CCOc1ccc(NC(=O)CN2C(=O)NC(CCSC)C2=O)cc1` (stereo not drawn), for which the “hERG current change (%, negative = inhibition) at 10uM” value was 9.3%.
Take `Oc1ccc(C[C@H]2CNCCN2CC2CCCCC2)cc1`: the “hERG current change (%, negative = inhibition) at 10uM” value is -7.3%.
For the compound `Cc1ccc(Cn2nnc3c(=O)[nH]c(C4CCN(C(=O)c5cccs5)CC4)nc32)cc1`, the “hERG current change (%, negative = inhibition) at 10uM” value is listed as -33%.
Turning to `OC(C#CCN1CCCC1)(c1ccccc1)c1cccc(F)c1` (stereo not drawn), the “hERG current change (%, negative = inhibition) at 10uM” value is on record as -16.7%.
Consider `COc1cccc(CN2CCC(n3nccc3NC(=O)CCOc3ccccc3)CC2)c1O`, for which the “hERG current change (%, negative = inhibition) at 10uM” value was -61.5%.
Consider `CCCC(NS(=O)(=O)c1ccc(Br)cc1)C(=O)O` (stereo not drawn), for which the “hERG current change (%, negative = inhibition) at 10uM” value is given as -9.92%.
As for `C[C@H](/C=C/[C@@]1(O)[C@H](C)C[C@H](O)CC1(C)C)O[C@@H]1O[C@H](CO)[C@@H](O)[C@H](O)[C@H]1O`, the “hERG current change (%, negative = inhibition) at 10uM” value was 18%.
`NC(=O)C1=C[C@H](c2ccccc2)C[C@H](OCc2ccc(CO)cc2)O1`: the “hERG current change (%, negative = inhibition) at 10uM” value was -0.899%.
Turning to `CN(Cc1cccc(F)c1)CC(O)COCc1ccccc1Cl` (stereo not drawn), the “hERG current change (%, negative = inhibition) at 10uM” value was -34.8%.
Regarding `CCOC(=O)N1CCN(Cc2nc3c(c(=O)n(C)c(=O)n3C)n2CCCc2ccccc2)CC1`, the “hERG current change (%, negative = inhibition) at 10uM” value is reported as -35.7%.
Turning to `O=C1COCCOCCOCCOCC(=O)NCCN1`, the “hERG current change (%, negative = inhibition) at 10uM” value came to 19.8%.
For `COc1ccc(Nc2nc(C)nc3c2oc2ccccc23)c(OC)c1` the value was 3.49%; for `Cc1ccc2sc(N(CCN(C)C)C(=O)/C=C/c3cccs3)nc2c1C.Cl`, 11.8%; for `Clc1ccccc1CN(Cc1ccccc1)c1ncnc2nc[nH]c12`, 16.6%.
As to `CCc1ccc(NC(=O)c2ccccc2SC)cc1`, the “hERG current change (%, negative = inhibition) at 10uM” value is -10.5%.
For `COc1cccc(C(=O)Nc2cccc(OCC(=O)O)c2)c1` the value was 3.97%; for `CN(C(=S)Nc1ccc(Oc2ccccc2)cc1)c1ccc(O)cc1`, -6.93%; for `COc1ccc(N2CCN(C(=O)COC(=O)c3ccc(Cl)nc3)CC2)cc1`, 6.01%.
The same measure for `COc1ccc(OC)c(-c2csc(N(CC3CCCO3)C(=O)Cc3ccccc3)n2)c1` (stereo not drawn): 18.2%; for `O=C(NCc1cccs1)c1ccc(N2CCCCC2)nc1`: -6.3%.
Regarding `O=C(c1cc(S(=O)(=O)N2CCCCC2)ccc1N1CCOCC1)N1CCN(Cc2ccccc2)CC1`, the “hERG current change (%, negative = inhibition) at 10uM” value is listed as 3.27%.
The same measure for `COc1ccc2nc3sc(C(=O)NCCN4CCc5ccccc5C4)cc3cc2c1`: -49.2%; for `Cc1ccc(-n2nc3c(=O)n(CCCC(=O)NCc4ccc(Cl)cc4)nc(C)c3c2C)cc1`: 4.82%; for `CC(C)c1ccc(C(=O)NNC(=O)C2C3CCC(C3)C2C(=O)O)cc1` (stereo not drawn): -12.6%.
Take `Cc1ccc(NC(=O)CS(=O)CC(=O)NCC2OCCc3ccccc32)c(C)c1` (stereo not drawn): the “hERG current change (%, negative = inhibition) at 10uM” value is recorded as 9.09%.
`COc1ccc(C2=NS(=O)(=O)N(C)C(C(=O)Nc3cc(C)ccc3O)=C2)cc1OC`: the “hERG current change (%, negative = inhibition) at 10uM” value was -11.6%.
Consider `O=C(CSc1nnnn1-c1cccc2c1CCCC2)N1CCCCC1`, for which the “hERG current change (%, negative = inhibition) at 10uM” value is given as -26.5%.
For `CN(C)S(=O)(=O)c1ccc(N2CCCC2)c(C(=O)Nc2ccccc2Br)c1` the value was -58.3%; for `COc1ccc(NC(=O)c2ccc3[nH]c(C)c(C)c3c2)cc1`, 15.4%; for `O=C(NCc1cn2ccccc2n1)c1ccc2c(c1)OCO2`, 11.5%.
`CS(=O)(=O)N(CC(=O)N/N=C/c1cc2c(cc1Br)OCO2)c1ccccc1Br`: the “hERG current change (%, negative = inhibition) at 10uM” value is given as -5.31%.
Consider `Nc1nc(Nc2ccccc2F)nc(NCc2ccccc2)c1[N+](=O)[O-]`, for which the “hERG current change (%, negative = inhibition) at 10uM” value worked out at 6.87%.
For `O=C(CCl)N(Cc1cc(=O)[nH]c2ccccc12)c1ccccc1`, the “hERG current change (%, negative = inhibition) at 10uM” value worked out at 0.288%.
Take `N#Cc1c(-c2ccccc2)nc(SCC(=O)Nc2ccccc2)[nH]c1=O`: the “hERG current change (%, negative = inhibition) at 10uM” value was 14.4%.
For the compound `CC1(C)COC(c2cc([N+](=O)[O-])ccc2Cl)=N1`, the “hERG current change (%, negative = inhibition) at 10uM” value was 7.81%.
For `CC(=O)Nc1ccc(S(=O)(=O)NCCOc2ccc(Cl)cc2C)cc1`, the “hERG current change (%, negative = inhibition) at 10uM” value is listed as -6.33%.
Consider `COc1cccc(CNC(=O)CCC2CCCN(C(=O)c3cccnc3SC)C2)c1` (stereo not drawn), for which the “hERG current change (%, negative = inhibition) at 10uM” value was 7.1%.
`Cc1cc(C)c(C#N)c(N2CCN(Cc3ccccc3)CC2)n1`: the “hERG current change (%, negative = inhibition) at 10uM” value is listed as -24.3%.
On to `Cc1ccccc1CCN(C(=O)c1csnn1)C(C(=O)NC1CCCC1)c1ccco1` (stereo not drawn), for which the “hERG current change (%, negative = inhibition) at 10uM” value is on record as -9.55%.
The same measure for `Cc1ccc(C(=O)Nc2cccc(S(=O)(=O)N3CCCCC3)c2)cc1[N+](=O)[O-]`: -7.47%; for `CC(=O)c1sc(N/N=C/c2ccc(C(C)C)cc2)nc1C`: 21.3%.
In the case of `COc1ccc(S(=O)(=O)N2CCCN(CC(=O)Nc3ccc4c(c3)OCO4)CC2)cc1`, the “hERG current change (%, negative = inhibition) at 10uM” value was -61.5%.
For the compound `Cc1occc1-c1nnc(SCC(=O)NCc2ccco2)n1CC(C)C`, the “hERG current change (%, negative = inhibition) at 10uM” value is 5.18%.
With `CCc1ccc(-c2cc(C)no2)cc1S(=O)(=O)N1CCN(c2ccc(C(C)=O)cc2)CC1`, the “hERG current change (%, negative = inhibition) at 10uM” value is recorded as -4.32%.
As for `Cc1ccc(NC(=S)NC(=O)/C=C/c2ccco2)c(O)c1`, the “hERG current change (%, negative = inhibition) at 10uM” value came to 2.91%.
For `COc1ccc2oc(=O)c(NC(=O)C3CCCCC3)cc2c1`, the “hERG current change (%, negative = inhibition) at 10uM” value is given as -2.23%.
As to `Cc1nn(-c2ccccc2)c(C)c1C(=O)Nc1nnc(-c2ccco2)o1`, the “hERG current change (%, negative = inhibition) at 10uM” value is given as -5.59%.
For `CC(=O)c1c(Cl)nc2ccc(Br)cc2c1-c1ccccc1` the value was 21.7%; for `Brc1ccc(C2Nc3cccc4cccc(c34)N2)o1`, 10%.
Regarding `C/C(=C\[C@@H](NP(=O)(c1ccccc1)c1ccccc1)c1ccccc1)CO[Si](c1ccccc1)(c1ccccc1)C(C)(C)C`, the “hERG current change (%, negative = inhibition) at 10uM” value turned out to be 5.58%.
For `Cl.c1csc(CNCc2ccncc2)c1`, the “hERG current change (%, negative = inhibition) at 10uM” value was found to be 21.8%.
The same measure for `COc1ccc(Cn2c(C3CC3)nc3ccc(NC(=O)c4cccnc4)cc3c2=O)cc1`: -42.6%; for `O=C(O)CCC(=O)NN1C(=O)c2ccccc2NC1c1ccco1` (stereo not drawn): 11%; for `COc1ccc(-n2c(=O)c3ccccc3n(Cc3ccc(F)cc3)c2=O)cc1OC`: 7.94%.
